Source: PubChem BioAssay AID1240 (Sanford-Burnham Center for Chemical Genomics, 2008)
Screen size: about 50,000 compounds; about 800 (1.6%) showed an effect of 50% or more. The list shows a part of the results.

These compounds were tested against Bcl-2-like protein 10 (Homo sapiens) (UniProt Q9HD36) (assay: TR3 peptide-Bcl-B binding displacers, biochemical primary FP assay, phenotype converters (AID 1240;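 also: 0% = Bcl-B with tracer peptide and DMSO and 100% = tracer peptide lacking Bcl-B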)). Details: GST-Bcl-B / FITC-TR3 peptide fluorescence polarization; stronger effect = higher value; compound at 3.75 mg/L.
Chain of UniProt Q9HD36 (Q9HD36 whole entry, looked up): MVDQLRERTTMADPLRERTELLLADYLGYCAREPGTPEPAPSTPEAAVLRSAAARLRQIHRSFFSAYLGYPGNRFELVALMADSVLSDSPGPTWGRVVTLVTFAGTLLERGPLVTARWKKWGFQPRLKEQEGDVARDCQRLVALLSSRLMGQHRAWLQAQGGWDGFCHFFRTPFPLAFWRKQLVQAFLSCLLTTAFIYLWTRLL

SMILES | displacement [%]
OCCN(CC#CCC(O)(c1ccccc1)c1ccccc1)Cc1ccccc1 | 10.9
Cc1ccc(/C=C/C(=O)Nc2ccc(C)c([N+](=O)[O-])c2)o1 | 62
O=C(Nc1cccc2ccccc12)C(=O)NC1CCCC1 | 1.8
O=C(c1ccccc1-c1nc2ccccc2[nH]1)N1CCOCC1 | 7.1
COCCN1C(=O)/C(=C/c2cccc([N+](=O)[O-])c2)SC1=S | -27
Cc1ccc2nsnc2c1NC(=O)c1ccc(-c2cccc([N+](=O)[O-])c2)o1 | 105
Cc1cc(C)cc(NC(=O)C(=O)NCCc2ccccc2)c1 | 8.5
NC(=O)c1ccccc1NC(=O)c1cccc(Cl)c1 | -9.4
COc1ccc(OC)c(N/C=C(/C#N)c2nc(-c3cc4c(ccc5ccccc54)oc3=O)cs2)c1 | 6.7
Cc1ccc(/C=C2/SC(=S)N(CCC(=O)Nc3c(C)n(C)n(-c4ccccc4)c3=O)C2=O)cc1 | 3
O=C(NCCC1=CCCCC1)c1ccc(Cl)cc1[N+](=O)[O-] | -5.1
COc1ccc(CCN2C(=O)CSC2c2ccccc2[N+](=O)[O-])cc1OC (centres undefined) | 0
O=C(Nc1ccc([N+](=O)[O-])cc1)C(Sc1ccccc1)c1ccccc1 (centres undefined) | 0
Cc1ccc(OCC(=O)N=Nc2c(O)[nH]c3c(Br)cc(Br)cc23)cc1 | 2.8
COc1cccc(CNCc2ccc([N+](=O)[O-])cc2)c1OC | 6.3
CCCOC(=O)c1c(NC(=O)c2cc3ccccc3oc2=O)sc2c1CCC(C)C2 (centres undefined) | 26
Cc1cc(OCC(=O)Nc2nc(-c3ccccc3)cs2)ccc1Cl | 7.2
Cc1ccc(OCC(=O)Nc2cccc(C(=O)Nc3ccccc3C(=O)O)c2)cc1C | 10.3
Cc1cc(C)c(NC(=O)C(C)Sc2nc3ccccc3[nH]2)c(C)c1 (centres undefined) | -8.4
O=C(Nc1ccccc1O)c1cccnc1 | -4
COc1ccc(/C=N/Nc2ccc3ccccc3n2)cc1 | -2.2
O=c1[nH]cnc2c1nnn2Cc1ccccc1 | 12.2

SMILES | displacement [%]
O=C1c2ccccc2C(=O)N1CSc1nnc(SCN2C(=O)c3ccccc3C2=O)s1 | -0.7
Cc1c(C(=O)OC(C)C)sc(NC(=O)/C=C/c2ccc3c(c2)OCO3)c1C(N)=O | -1.9
FC(F)(F)c1ccc(/C=N/N2CCN(c3ccccc3)CC2)cc1 | -8.4
COCCOC(=O)C1=C(C)NC2=C(C(=O)CC(C)(C)C2)C1c1cccc(OCc2ccccc2)c1 (centres undefined) | -4
Cc1ccc(/C(O)=C/C(=O)C(=O)Nc2nccs2)cc1 | 14.3
N#Cc1c(NC(=O)CSc2ccccc2)sc2c1CCCC2 | -8.6
CC1CCN(C(=O)c2ccc([N+](=O)[O-])cc2NC(=O)c2cccs2)CC1 | 2.6
Cc1ccc(-c2ccc(/C=C3\Sc4ccccc4C3=O)o2)c([N+](=O)[O-])c1 | 5.6
Cc1ccc(C(C)C)cc1OCC(=O)N=Nc1c(O)n(C)c2ccccc12 | 2.6
CCN1/C(=C\C=C\c2n(CCCS(=O)(=O)[O-])c3cc(C#N)ccc3[n+]2CC)Oc2ccc(-c3ccccc3)cc21 | 14.4
CCn1c(C(O)c2ccc(C)cc2)nc2ccccc21 (centres undefined) | -11.3
O=C(NCC1CCCO1)c1cnn2c1NC(c1ccco1)CC2C(F)(F)F (centres undefined) | 2.8
CCN(CC)C(=O)N1c2ccccc2C=Cc2ccccc21 | 6.8
Clc1ccc(-c2ncnn2-c2ccccc2Cl)cc1 | -6
Cc1cc(=O)[nH]c(Nc2ccccc2)n1 | -8
CCc1cccc(NC(=O)c2ccccc2Br)c1 | 1.8
N/C(=N\N=C/c1ccc(F)cc1)N/N=C\c1ccc(F)cc1 | 6.4
CC1(C)CC(=O)C2=C(C1)N(c1ccccc1)C1=C(C2)C(=O)CC(C)(C)C1 | 7.8
CCN(CC)c1cc(C)c(C#N)c2nc3ccccc3n12 | -0.4
Cn1c(O)c(C=NCC2(C)CC(O)CC(C)(C)C2)c(=O)n(C)c1=S (centres undefined) | 3.2
CC(C)(C)c1ccc(OCCOc2ccc(C=C3C(=O)NC(=S)NC3=O)cc2)cc1 | -27.9
O=C(CC(c1ccccc1)c1ccccc1)c1ccc2c(c1)OCCO2 | 3.4

SMILES | displacement [%]
COc1cc(C)nc(Nc2nc(C)c3cc(C)ccc3n2)n1 | 107
COc1cc(C=O)ccc1Oc1ccc([N+](=O)[O-])cc1 | 5
C/C(=N\Nc1nc(C)cc(=O)[nH]1)c1ccc(C)cc1 | -12.6
CCC(=O)Nc1ccc(NC(=O)c2ccc(Cl)c(Cl)c2)cc1 | 6.4
COC(=O)CCC(=O)Nc1cccc(C(N)=O)c1 | -6
CCOc1cccc(/C=N/NC(=O)CSc2nc3ccccc3[nH]2)c1O | -19.5
O=C(CSc1ncccc1C(=O)O)Nc1ccccc1 | 14.6
O=C(CCc1ccccc1)Nc1cccc(Cl)c1Cl | -10.1
COc1ccc(C2CC(=O)C3=C(C2)Nc2ccccc2NC3c2ccc(C(F)(F)F)cc2)cc1 (centres undefined) | 3.4
COc1ccc(N(CC(=O)Nc2cc(C)cc(C)c2)S(C)(=O)=O)cc1 | 8.5
COc1ccc(NS(=O)(=O)c2ccc(N/C=C\C(=O)c3ccccc3)cc2)nn1 | 2.8
CC(C)CC(=O)NC(NC(=S)Nc1cccc(Br)c1)C(Cl)(Cl)Cl (centres undefined) | -1.3
CCOc1ccc(C(=O)Nc2ccc(N(CC)CC)cc2)cc1[N+](=O)[O-] | 17.7
COc1ccc(Cl)cc1NC(=O)COc1cc(C)c(Cl)c(C)c1 | -5.9
O=C(Nc1ccc(OC(F)(F)C(F)F)cc1)c1ccc(Cl)c([N+](=O)[O-])c1 | -3
COc1ccccc1N1CCN(/N=C\c2cc(Br)c(O)c(OC)c2)CC1 | 10.8
CCc1ccc(/C(C)=N/Nc2cc(-n3cc(C)cn3)ncn2)cc1 | -10.3
Cc1cc([N+](=O)[O-])ccc1NC(=S)NC(=O)/C=C/c1ccccc1 | 9
COc1cc(/C=C2\C(=O)NC(=O)N(c3ccc(C)cc3)C2=O)cc(Cl)c1O | 7.1
COc1cc(C(=O)NC(NC(=S)Nc2ccc(C(C)=O)cc2)C(Cl)(Cl)Cl)cc(OC)c1OC (centres undefined) | 7.8
COCCOC(=O)C1=C(C)NC(=S)NC1c1ccccc1OC (centres undefined) | 8.7
COc1ccc(Cc2noc(COc3ccc4ccccc4c3)n2)cc1OC | -2.7

SMILES | displacement [%]
CCOc1cc(/C=C/c2[nH]c(=O)[nH]c(=O)c2[N+](=O)[O-])ccc1O | 0
CC(=O)N/N=C/c1cc(C)n(-c2cc(Cl)ccc2Cl)c1C | -0.2
Cc1oc2cc(Br)c(OS(C)(=O)=O)cc2c1C(=O)OC(C)C | 8.8
CC(C)CCNC(=O)C(=O)Nc1cccc(Cl)c1 | 3
Nc1nonc1C(=O)N/N=C/c1cn[nH]c1-c1ccccc1 | -5.4
CCc1ccc(S(=O)(=O)n2nnc3ccccc32)cc1 | 7.2
CCOC(=O)C1Cc2cc3c(cc2C1=O)CC(C(=O)OCC)C3=O (centres undefined) | 19
O=C1OC(c2cccc(F)c2)=N/C1=C\c1cccs1 | 19.4
O=C(NCc1ccccn1)C(=O)N/N=C/c1ccccc1C(F)(F)F | -19.3
CCOc1ccc(C2=C/C(=C/c3ccc(Cl)cc3)C(=O)O2)cc1 | -3.8
Cc1ccc2c(Cl)c(C(=O)Nc3ccccn3)sc2c1 | -8.6
Cc1cccc(OCCOCCN2CCN(C)CC2)c1 | -81.2
CC(C)(C)c1ccc(OCCOc2ccc(C=C3C(=O)NC(=O)NC3=O)cc2)cc1 | 12.3
COc1c(O)ccc(/C=N/NC(=O)COc2c(Br)cc(Br)cc2Br)c1[N+](=O)[O-] | 5.9
CCc1ccccc1NC(=O)/C(=C/c1ccccc1)c1ccccc1 | 5.6
O=C(c1ccc(-c2ccccc2)cc1)N1CCN(Cc2ccc3c(c2)OCO3)CC1 | -1.6
COc1ccc(CN2CCN(C3CCCC3)CC2)cc1Br | -7.4
CCOC(=O)C1=C(O)/C(=C/c2ccc(O)cc2)SC1=Nc1cccc(Cl)c1 | 0.1
CCN1/C(=C/C=Nc2ccccc2)Oc2ccccc21 | 14.9
CCC(Sc1nc(-c2ccccc2)cc(-c2ccccc2)n1)C(=O)Nc1nnc(C)s1 (centres undefined) | 13.2
O=C(c1ccc2c(c1)OCO2)N1CCC(CN2C(=O)c3cccc4cccc(c34)C2=O)CC1 | 11.3
Clc1ccccc1-c1nc(-c2cccnc2)no1 | 3.3

SMILES | displacement [%]
Cc1c(C(=O)NN2CCOCC2)cccc1[N+](=O)[O-] | 4.2
CCC(=O)N1c2ccccc2NC2=C(C(=O)CC(c3ccc(OC)cc3)C2)C1c1ccccc1 (centres undefined) | 8.5
COc1ccc(NS(=O)(=O)c2ccc(C)c([N+](=O)[O-])c2)cc1 | 14.8
O=C(N/N=C/c1ccc(O)cc1O)c1ccc([N+](=O)[O-])cc1 | -28.9
Cc1cccc(OCc2nnc(NC(=O)Nc3ccccc3)s2)c1 | 1.3
Cc1cc(OCC(=O)N2CCCCC2)ccc1Br | -7.4
COc1ccc(OC)c(N(CC(=O)Nc2ccc(C)cc2C)S(C)(=O)=O)c1 | 8.6
Cc1ccc(C(=O)/C(=C\c2ccc(F)cc2)c2nc3ccccc3o2)cc1 | 12.7
CCOc1ccc(NC(=O)CCCOc2ccccc2)cc1 | -10.2
O=S(=O)(N/N=C/c1cccc(F)c1)c1ccccc1 | -8.1
O=C(NCC1CCCO1)c1nn2c(c1Cl)NC(c1ccco1)CC2C(F)(F)F (centres undefined) | 1.6
Cc1cc([N+](=O)[O-])ccc1NCc1ccco1 | -0.7
CCCCOC(=O)c1cccc(-c2ccc(/C=C3\C(=O)N(c4ccc(S(N)(=O)=O)cc4)N=C3C)o2)c1 | 7.4
COc1ccc(N2C(=O)C3C(C2=O)C2(C)C(=O)C3(C)C(c3ccccc3)=C2c2ccccc2)cc1 (centres undefined) | 6.9
Cc1cccc2sc(NC(=O)/C=C\C(=O)O)nc12 | 10.5
CCCOC(=O)c1ccc(NS(=O)(=O)c2c(C)cc(C)cc2C)cc1 | 3.3
COc1ccc(C(=O)Nc2ccc(O)c(-c3nc4ccccc4o3)c2)cc1OC | -0.4
CC1(C)N([O-])C(c2cccs2)=C[N+]1=O | 14.4
COc1ccc2c(Cl)c(C(=O)Nc3ccc(N4CCOCC4)cc3)sc2c1 | -14.4
Cn1c(=O)n(CCOc2ccc(Br)cc2)c2ccccc21 | 14.7
C=CCc1cccc2cc(C(=O)Nc3ccc(OCC)cc3)c(=O)oc12 | 53.1
